Measurements: the supplement of paper PMC12217912
The list shows a part of the results. The full chains were built here from the parent and the listed change. Values near 0.05 are background.

B1: TEV protease; numbered along this chain (parent)
chain: MGESLFKGPRDYNPISSSICHLTNESDGHTTSLYGIGFGPFIITNKHLFRRNNGTLVVQSLHGVFKVKDTTTLQQHLVDGRDMIIIRMPKDFPPFPQKLKFREPQREERICLVTTNFQTKSMSSMVSDTSCTFPSGDGIFWKHWIQTKDGQCGSPLVSTRDGFIVGIHSASNFTNTNNYFTSVPKNFMELLTNQEAQQWVSGWRLNADSVLWGGHKVFMVKPEEPFQPVKEATQL

Variants of: B1
Test: raw area under fraction-flipped curve 0-4 h after induction (AUC4h, not background-subtracted), DNA-recorder readout of cleavage of the substrate (dimensionless); higher = more cleavage of the substrate by the protease variant
Conditions: temperature: 34 °C; time window: 0-4 h after rhamnose induction
Description: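 In vivo DNA recorder in E. coli TOP10(DE3) ΔrhaA at 34 °C. Each TEVp single-site mutant (parent TEVp 0) is paired with a single-site variant of the 7-mer TEVs (canonical ENLYFQ|S). The substrate sits between flexible linkers in a Bxb1-sfGFP-TEVs-SsrA fusion, so cleavage stabilises Bxb1 and speeds flipping of a recombination array, read by NGS. The value is the raw area under the fraction-flipped curve over 0-4 h after rhamnose induction (AUC4h), with ≥20 reads per time point. It is not background-subtracted; inactive controls average about 0.047.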
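Further: Bxb1 expression induced with 0.2% (w/v) L-rhamnose at OD600 near 0.5, cultures sampled hourly, flipped fraction per protease–substrate barcode pair counted by paired-end Illumina sequencing.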

Variant | area with substrate ENLYFAS | area with substrate ENLYFCS | area with substrate ENLYFDS | area with substrate ENLYFES | area with substrate ENLYFFS | area with substrate ENLYFGS | area with substrate ENLYFHS | area with substrate ENLYFIS | area with substrate ENLYFKS | area with substrate ENLYFLS | area with substrate ENLYFMS | area with substrate ENLYFPS | area with substrate ENLYFSS | area with substrate ENLYFTS | area with substrate ENLYFVS | area with substrate ENLYFWS | area with substrate ENLYFNS | area with substrate ENLYFRS | area with substrate ENLYFYS
MGESLFKGPRDYNPISSSGCHLTNESDGHTTSLYGIGFGPFIITNKHLFRRNNGTLVVQSLHGVFKVKDTTTLQQHLVDGRDMIIIRMPKDFPPFPQKLKFREPQREERICLVTTNFQTKSMSSMVSDTSCTFPSGDGIFWKHWIQTKDGQCGSPLVSTRDGFIVGIHSASNFTNTNNYFTSVPKNFMELLTNQEAQQWVSGWRLNADSVLWGGHKVFMVKPEEPFQPVKEATQL [I19G] | 0.0841 | 0.0546 | 0.0503 | 0.0537 | 0.0689 | 0.0477 | 0.0676 | 0.0568 | 0.056 | 0.0514 | 0.0554 | 0.05 | 0.056 | 0.0518 | 0.0178 | 0.0534 |  |  | 
MGESLFKGPRDYNPISSSICILTNESDGHTTSLYGIGFGPFIITNKHLFRRNNGTLVVQSLHGVFKVKDTTTLQQHLVDGRDMIIIRMPKDFPPFPQKLKFREPQREERICLVTTNFQTKSMSSMVSDTSCTFPSGDGIFWKHWIQTKDGQCGSPLVSTRDGFIVGIHSASNFTNTNNYFTSVPKNFMELLTNQEAQQWVSGWRLNADSVLWGGHKVFMVKPEEPFQPVKEATQL [H21I] | 0.0678 | 0.0596 | 0.0542 | 0.069 | 0.0658 | 0.0733 | 0.0565 | 0.0533 | 0.0661 | 0.0628 | 0.0718 | 0.0637 | 0.0628 | 0.0518 |  | 0.0574 | 0.0671 | 0.0549 | 0.0592
MGESLFKGPRDYNPISSSICTLTNESDGHTTSLYGIGFGPFIITNKHLFRRNNGTLVVQSLHGVFKVKDTTTLQQHLVDGRDMIIIRMPKDFPPFPQKLKFREPQREERICLVTTNFQTKSMSSMVSDTSCTFPSGDGIFWKHWIQTKDGQCGSPLVSTRDGFIVGIHSASNFTNTNNYFTSVPKNFMELLTNQEAQQWVSGWRLNADSVLWGGHKVFMVKPEEPFQPVKEATQL [H21T] | 0.0578 | 0.0572 | 0.0516 | 0.06 | 0.0541 | 0.0906 | 0.0489 | 0.0617 | 0.0607 | 0.0661 | 0.0693 | 0.0619 | 0.0697 | 0.0612 | 0.0548 | 0.059 | 0.0574 | 0.0532 | 0.0482
MGESLFKGPRDYNPISSSICHLWNESDGHTTSLYGIGFGPFIITNKHLFRRNNGTLVVQSLHGVFKVKDTTTLQQHLVDGRDMIIIRMPKDFPPFPQKLKFREPQREERICLVTTNFQTKSMSSMVSDTSCTFPSGDGIFWKHWIQTKDGQCGSPLVSTRDGFIVGIHSASNFTNTNNYFTSVPKNFMELLTNQEAQQWVSGWRLNADSVLWGGHKVFMVKPEEPFQPVKEATQL [T23W] | 0.048 | 0.0457 | 0.0554 | 0.0645 | 0.063 | 0.0643 | 0.0542 | 0.0564 | 0.0591 |  | 0.065 | 0.0629 | 0.0528 | 0.0586 | 0.059 | 0.0494 | 0.0571 | 0.055 | 0.057
MGESLFKGPRDYNPISSSICHLTAESDGHTTSLYGIGFGPFIITNKHLFRRNNGTLVVQSLHGVFKVKDTTTLQQHLVDGRDMIIIRMPKDFPPFPQKLKFREPQREERICLVTTNFQTKSMSSMVSDTSCTFPSGDGIFWKHWIQTKDGQCGSPLVSTRDGFIVGIHSASNFTNTNNYFTSVPKNFMELLTNQEAQQWVSGWRLNADSVLWGGHKVFMVKPEEPFQPVKEATQL [N24A] | 0.0455 |  | 0.0565 | 0.0611 | 0.074 | 0.0602 |  | 0.0631 |  |  | 0.0706 | 0.0596 |  |  |  | 0.0684 | 0.0654 | 0.061 | 
MGESLFKGPRDYNPISSSICHLTGESDGHTTSLYGIGFGPFIITNKHLFRRNNGTLVVQSLHGVFKVKDTTTLQQHLVDGRDMIIIRMPKDFPPFPQKLKFREPQREERICLVTTNFQTKSMSSMVSDTSCTFPSGDGIFWKHWIQTKDGQCGSPLVSTRDGFIVGIHSASNFTNTNNYFTSVPKNFMELLTNQEAQQWVSGWRLNADSVLWGGHKVFMVKPEEPFQPVKEATQL [N24G] | 0.0422 | 0.0629 |  | 0.0642 | 0.0682 | 0.0612 | 0.0611 | 0.0601 | 0.0666 | 0.0686 | 0.0567 | 0.0604 | 0.0544 | 0.057 | 0.036 | 0.0538 | 0.0637 | 0.0622 | 0.0554
MGESLFKGPRDYNPISSSICHLTPESDGHTTSLYGIGFGPFIITNKHLFRRNNGTLVVQSLHGVFKVKDTTTLQQHLVDGRDMIIIRMPKDFPPFPQKLKFREPQREERICLVTTNFQTKSMSSMVSDTSCTFPSGDGIFWKHWIQTKDGQCGSPLVSTRDGFIVGIHSASNFTNTNNYFTSVPKNFMELLTNQEAQQWVSGWRLNADSVLWGGHKVFMVKPEEPFQPVKEATQL [N24P] | 0.0565 | 0.05 | 0.0513 | 0.0554 | 0.0622 | 0.0653 | 0.0698 | 0.0535 | 0.0556 | 0.051 | 0.052 | 0.0582 | 0.0517 | 0.0482 |  |  | 0.0484 | 0.059 | 0.059
MGESLFKGPRDYNPISSSICHLTSESDGHTTSLYGIGFGPFIITNKHLFRRNNGTLVVQSLHGVFKVKDTTTLQQHLVDGRDMIIIRMPKDFPPFPQKLKFREPQREERICLVTTNFQTKSMSSMVSDTSCTFPSGDGIFWKHWIQTKDGQCGSPLVSTRDGFIVGIHSASNFTNTNNYFTSVPKNFMELLTNQEAQQWVSGWRLNADSVLWGGHKVFMVKPEEPFQPVKEATQL [N24S] | 0.0519 | 0.0669 | 0.0615 | 0.0981 |  |  |  | 0.058 | 0.0551 | 0.0631 | 0.0624 | 0.0562 | 0.0819 | 0.0598 |  |  | 0.0668 | 0.0655 | 0.0582
MGESLFKGPRDYNPISSSICHLTVESDGHTTSLYGIGFGPFIITNKHLFRRNNGTLVVQSLHGVFKVKDTTTLQQHLVDGRDMIIIRMPKDFPPFPQKLKFREPQREERICLVTTNFQTKSMSSMVSDTSCTFPSGDGIFWKHWIQTKDGQCGSPLVSTRDGFIVGIHSASNFTNTNNYFTSVPKNFMELLTNQEAQQWVSGWRLNADSVLWGGHKVFMVKPEEPFQPVKEATQL [N24V] | 0.0522 | 0.058 | 0.0511 | 0.0581 | 0.0645 | 0.0551 | 0.053 | 0.0634 | 0.0583 | 0.0929 | 0.074 | 0.0614 | 0.0568 | 0.0559 | 0.0541 | 0.0443 | 0.0684 | 0.0619 | 0.0511
